Data reported in PubChem BioAssay AID624296 (National Center for Advancing Translational Sciences (NCATS), 2012).
Values joined by “and” are separate entries in the source; they are usually repeats but may differ in a detail not shown here. Identical values can stand only once. Hit rate of the full screen: of about 350,000 compounds, about 9,900 (2.8%) were called active. The shares of active, inactive and inconclusive entries below differ from those in the screen. Calls come from the whole dose curve; as a rule, active = well fitted activation curve with a large enough effect; inconclusive = small, poorly fitted or top-dose-only effect; inactive = no such curve, though single readings can be large or run the other way. A potency beside an inconclusive call is a rough fit, not a confirmed value.

Assay: A quantitative high throughput screen for small molecules that induce DNA re-replication in MCF 10a normal breast cells. For activity, positive = re-replication: % of control where 0% means no effect. Note: nearly all actives have a fitted effect of over 50% in size.
Conditions: MCF 10A DNA re-replication, Hoechst nuclear intensity, 48 h; activity, positive = re-replication: at 46.1 µM (top of the series)
Potency is the fitted concentration of half-maximal effect; tags give direction and shape of the fitted curve.

SMILES	Potency	activity, positive = re-replication
CCc1ccc(N(C(=O)c2snc(C(N)=O)c2N)C(C(=O)NC2CCCC2)c2ccncc2)cc1 (centres undefined)	inconclusive: 29.1 µM [activator, single point]	–
Cc1nn(-c2ccc(F)cc2)c(Cl)c1C(=O)NCC1CCCO1 (centres undefined)	inconclusive: 0.0046 µM [activator, full curve, poor fit]	–
CCOc1ccc(S(=O)(=O)Nc2cccc(C(=O)NCC(C)(C)N3CCOCC3)c2)cc1	–	inactive: -0.122%
COc1ccccc1-c1coc2c(CN3CCCCC3C)c(O)ccc2c1=O (centres undefined)	–	inactive: -0.249%
COc1ccc(/C=N/NC(=O)c2ccc(COc3ccccc3Cl)o2)cc1	inconclusive: 29.1 µM [activator, single point]	–
N/C(=N\OC(=O)c1cc(Cl)ccc1Cl)c1ccncc1	inconclusive: 25.9 µM [activator, single point]	–
O=[N+]([O-])c1ccc(-c2cn3nc(-c4ccccc4)c(-c4ccccc4)nc3n2)cc1	active: 3.66 µM	–
COc1cc(-c2c(-c3ccc4c(c3)OCO4)noc2C)ccc1F	active: 20.6 µM	–
COc1ccc(Cl)cc1NC(=S)N(CCCN1CCOCC1)Cc1cn(C)c2ccccc12	inconclusive: 20.6 µM [activator, single point]	–
Cc1ccccc1C(=O)Nc1cccc(C(=O)N/N=C/c2ccccn2)c1	inconclusive: 29.1 µM [activator, partial curve, poor fit]	–
O=C(NC(=S)N1CCCc2ccccc21)c1ccc(Br)cc1	inconclusive: 29.1 µM [activator, partial curve, poor fit]	–
Cc1ccc(-c2nc(C(Cl)Cl)c3ccccc3n2)cc1	inconclusive: 0.0046 µM [activator, full curve, poor fit]	–
COc1ccc(S(=O)(=O)N2CC(=O)Nc3ccccc32)cc1C	inconclusive: 6.51 µM [activator, single point]	–
O=C(N/N=C/c1ccccc1OCc1ccccc1Cl)c1cccnc1	inconclusive: 29.1 µM [activator, single point]	–
CCCCNC(=O)COC(=O)c1c2c(nc3ccccc13)/C(=C/c1cccs1)CC2	active: 3.26 µM	–
CC(=O)N(C)C1=C(N2CCOCC2)C(=O)c2ccccc2C1=O	active: 0.731 µM	–
CC1CCCCN1C(=O)CSc1nc2ccccc2[nH]1 (centres undefined)	inconclusive: 0.0041 µM [activator, full curve, poor fit]	–
CS(=O)(=O)N(CC(=O)Nc1ccccc1-c1ccccc1)c1ccccc1	inconclusive: 23.1 µM [activator, single point]	–
COc1ccc(S(=O)(=O)N(C)Cc2cccs2)cc1Br	–	inactive: 14.6%
CC[C@@]1(C(=O)OC)N[C@H](CN(C)C(=O)Nc2ccc(OC)cc2)[C@@H]2C(=O)N(C)C(=O)[C@@H]21	–	inactive: 0.418%
O=c1n(CC2CO2)c(=O)n(CC2CO2)c(=O)n1CC1CO1 (centres undefined)	active: 1.84 µM	–
CCOc1ccc(NC(=O)CN(C)C(=O)C2CCN(c3ncnc4sc(C)c(C)c34)CC2)cc1OCC	–	inactive: -2.5%

SMILES	Potency	activity, positive = re-replication
O=C(NCCCc1ccccc1)C(=O)c1c[nH]c2ccccc12	inconclusive: 16.4 µM [activator, partial curve, poor fit]	–
COc1ccc(NC(=O)C23CCC(C2)C(C)(C)C3=O)cc1 (centres undefined)	inconclusive: 11.2 µM [activator, partial curve, poor fit]	–
C[C@H]1CN([C@@H](C)CO)C(=O)Cc2cc(NC(=O)CCC(F)(F)F)ccc2O[C@H]1CN(C)S(C)(=O)=O	–	inactive: 2.39%
Cc1cccc(NC(=O)CSc2nc(C)c(Cc3ccccc3)c(=O)[nH]2)c1	inconclusive: 29.1 µM [activator, single point]	–
Cn1c(=O)n(C)c2cc(S(=O)(=O)N3CCCc4ccccc43)ccc21	inconclusive: 20.6 µM [activator, single point]	–
O=C1OCC/C1=C\c1ccccc1	–	inactive: -31.9%
Cc1ccc(NC(=O)c2ccc3nc[nH]c3c2)nc1	inconclusive: 29.1 µM [activator, partial curve, poor fit]	–
Cc1nc(SC2CC(=O)N(c3cc(Cl)cc(Cl)c3)C2=O)nc2c1CCCC2 (centres undefined)	–	inactive: 22.1%
COc1ccc(NC(=O)c2sccc2SCc2cccc(C(F)(F)F)c2)cc1	–	inactive: -1.28%
CCCCCCCc1nc2sc3c(c2c(=O)n1N)CC(C)(C)OC3	inconclusive: 4.11 µM [activator, partial curve, poor fit]	–
CCCCn1c(N)c(N(CCC(C)C)C(=O)c2oc3ccc(OCC)cc3c2C)c(=O)[nH]c1=O	inconclusive: 18.4 µM [activator, single point]	–
O=C(Nc1ccccc1N1CCN(c2ccccc2)CC1)C12CC3CC(CC(C3)C1)C2	–	inactive: 6.65%
CC(C)(C)c1cc(C(=O)NNC(=O)Nc2ccccc2)n(Cc2ccccc2)n1	inconclusive: 29.1 µM [activator, single point]	–
COc1ccc(NC(=O)CS(=O)(=O)c2ccccc2)cc1	inconclusive: 5.8 µM [activator, partial curve, poor fit]	–
O=c1nc2c(-c3cccc(Br)c3)n[nH]n2c2ccccc12	inconclusive: 29.1 µM [activator, single point]	–
Cc1cccc2[nH]c3c(N4CCC5(CC4)OCCO5)ncnc3c12	inconclusive: 29.1 µM [activator, single point]	–
O=C(N/N=C/c1ccccc1O)c1ccncc1	inactive and inconclusive: 25.9 µM [activator, single point]	–
CC(=O)c1ccc(NC(=S)NCCc2ccc(S(N)(=O)=O)cc2)cc1	–	inactive: 4.26%
CCc1cc(=O)[nH]c(SCC(=O)NCc2ccc3c(c2)OCO3)n1	–	inactive: 3.41%
COc1ccc(-n2nc(C(=O)N3CCN(Cc4ccc5c(c4)OCO5)CC3)c3ccccc3c2=O)cc1	inconclusive: 32.6 µM [activator, partial curve, poor fit]	–
CC(C)(C)N(NC(=O)Nc1ccc(Cl)c(Cl)c1)C(=O)c1ccccc1	inconclusive: 22.4 µM [activator, single point]	–
COc1ccccc1/C=C1\Cc2ccccc2C1=O	–	inactive: 40.1%
